Paper PMC11335210
These are yes or no findings as the source states them, for the method shown. Binding seen in cells or lysates may run through a third protein. Some results given as binding are weak or reduced against the parent protein; the word gives no strength. For some of these results: Sequences can lack the tags named with a protein.

T1: Plakophilin 4 (PKP4), endogenous in mouse keratinocytes (mouse (endogenous in mouse keratinocytes)) (UniProt Q68FH0)
T1 sequence: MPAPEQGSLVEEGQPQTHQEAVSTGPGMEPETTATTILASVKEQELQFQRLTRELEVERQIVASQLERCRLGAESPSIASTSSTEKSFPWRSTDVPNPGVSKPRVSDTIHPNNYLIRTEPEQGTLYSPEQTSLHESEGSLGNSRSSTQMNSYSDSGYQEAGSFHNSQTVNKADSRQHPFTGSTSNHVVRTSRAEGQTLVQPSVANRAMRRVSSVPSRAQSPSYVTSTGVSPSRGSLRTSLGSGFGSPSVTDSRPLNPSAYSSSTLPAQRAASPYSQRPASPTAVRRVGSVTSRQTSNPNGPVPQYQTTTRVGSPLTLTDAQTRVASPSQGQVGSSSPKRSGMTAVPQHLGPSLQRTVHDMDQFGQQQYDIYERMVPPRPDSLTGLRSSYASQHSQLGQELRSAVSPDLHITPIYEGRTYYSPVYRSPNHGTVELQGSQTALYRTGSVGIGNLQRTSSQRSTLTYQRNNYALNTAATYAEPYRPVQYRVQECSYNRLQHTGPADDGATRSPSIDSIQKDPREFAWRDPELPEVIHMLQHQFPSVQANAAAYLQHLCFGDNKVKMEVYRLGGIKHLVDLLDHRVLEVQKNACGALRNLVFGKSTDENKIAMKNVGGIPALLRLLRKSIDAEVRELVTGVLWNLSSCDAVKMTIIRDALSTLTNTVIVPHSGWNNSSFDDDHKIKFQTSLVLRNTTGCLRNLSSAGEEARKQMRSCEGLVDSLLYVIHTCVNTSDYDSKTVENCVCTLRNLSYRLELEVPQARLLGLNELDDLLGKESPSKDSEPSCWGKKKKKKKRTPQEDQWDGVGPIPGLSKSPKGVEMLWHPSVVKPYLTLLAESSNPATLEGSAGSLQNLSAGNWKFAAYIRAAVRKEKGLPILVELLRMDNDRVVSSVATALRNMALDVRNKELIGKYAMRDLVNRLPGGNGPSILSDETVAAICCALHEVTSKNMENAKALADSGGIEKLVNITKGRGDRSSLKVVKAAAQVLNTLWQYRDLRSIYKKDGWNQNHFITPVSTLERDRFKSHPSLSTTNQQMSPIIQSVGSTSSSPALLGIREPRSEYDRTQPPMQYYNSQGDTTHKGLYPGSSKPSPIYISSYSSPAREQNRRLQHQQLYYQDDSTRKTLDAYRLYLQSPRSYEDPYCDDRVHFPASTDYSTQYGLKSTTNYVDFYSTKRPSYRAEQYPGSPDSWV

T2: human PKP4 N-terminally tagged with EGFP (EGFP-PKP4-WT) (human) (UniProt Q99569)
T2 sequence: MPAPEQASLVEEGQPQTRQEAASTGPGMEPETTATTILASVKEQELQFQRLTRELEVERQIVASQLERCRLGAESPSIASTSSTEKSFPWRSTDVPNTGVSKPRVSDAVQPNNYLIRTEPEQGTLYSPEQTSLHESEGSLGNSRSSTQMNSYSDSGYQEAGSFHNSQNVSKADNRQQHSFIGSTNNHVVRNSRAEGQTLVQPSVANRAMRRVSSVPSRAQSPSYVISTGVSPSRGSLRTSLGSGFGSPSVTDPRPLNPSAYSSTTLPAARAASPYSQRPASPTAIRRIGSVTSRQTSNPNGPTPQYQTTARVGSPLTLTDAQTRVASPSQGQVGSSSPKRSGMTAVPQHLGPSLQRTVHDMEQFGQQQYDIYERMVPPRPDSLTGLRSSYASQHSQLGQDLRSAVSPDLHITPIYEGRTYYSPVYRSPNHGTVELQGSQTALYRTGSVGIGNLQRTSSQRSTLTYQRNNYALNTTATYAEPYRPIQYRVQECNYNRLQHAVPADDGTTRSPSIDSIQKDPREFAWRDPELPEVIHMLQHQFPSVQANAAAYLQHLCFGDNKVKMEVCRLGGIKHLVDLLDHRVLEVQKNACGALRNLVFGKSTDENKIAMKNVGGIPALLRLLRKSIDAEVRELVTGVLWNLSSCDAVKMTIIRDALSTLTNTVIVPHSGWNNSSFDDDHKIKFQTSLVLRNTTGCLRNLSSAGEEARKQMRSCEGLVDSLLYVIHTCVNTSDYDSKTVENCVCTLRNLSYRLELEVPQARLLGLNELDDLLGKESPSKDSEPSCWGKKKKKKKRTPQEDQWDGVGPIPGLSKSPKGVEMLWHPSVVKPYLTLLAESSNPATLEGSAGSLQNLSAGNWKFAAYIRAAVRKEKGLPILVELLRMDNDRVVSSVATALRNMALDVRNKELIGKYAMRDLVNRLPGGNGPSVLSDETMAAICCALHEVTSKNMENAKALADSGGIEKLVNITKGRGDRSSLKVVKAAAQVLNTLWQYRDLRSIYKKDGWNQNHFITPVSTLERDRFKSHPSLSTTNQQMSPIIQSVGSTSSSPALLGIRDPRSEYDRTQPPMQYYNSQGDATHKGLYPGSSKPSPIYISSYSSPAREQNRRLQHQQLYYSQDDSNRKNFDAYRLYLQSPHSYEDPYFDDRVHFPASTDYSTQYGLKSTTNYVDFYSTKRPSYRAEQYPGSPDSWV


Experiments:
[1] = target: T1, Plakophilin 4 (PKP4), endogenous in mouse keratinocytes (mouse (endogenous in mouse keratinocytes)); test: co-IP; anti-PKP4 antibody and Protein A agarose on lysates of WT keratinocytes, PKP4-KO cells in parallel as control; IP buffer 20 mM Tris-HCl pH 7.5, 137 mM NaCl, 2 mM EDTA, 10% glycerol, 1% NP-40; overnight at 4 °C; western blot
[2] = target: T2, human PKP4 N-terminally tagged with EGFP (EGFP-PKP4-WT) (human); test: co-IP; GFP-Trap Agarose on lysates of PKP4-KO + GFP-PKP4 (Rescue) keratinocytes, WT + GFP cells as control; IP buffer 20 mM Tris-HCl pH 7.5, 137 mM NaCl, 2 mM EDTA, 10% glycerol, 1% NP-40; 1 h at 4 °C; western blot

| binding [1] | binding [2] | Binder |
| --- | --- | --- |
| binds |  | PKP1 (protein, UniProt P97350 1-728) MNHSPLKTALAYECFQDQDNSTLALPSDQKMKTGTSGRQRVQEQVMMTVKRQKSKSSQSSTLSHSNRGSMYDGLADNYNNYGTTSRSSYFSKFQAGNGSWGYPIYNGTLKREPDNRRFSSYSQMENWSRHYPRGSCATPGAGSDICFMQKIKASRSEPDLYCDPRGTLRKGTLGSKGHKTTQNRCSFYSTCSGQKAVKKCPVRPPSCTSKQDPVYVPPISCNKDLSFGHSRASSKICSEDIECSGLTIPKAVQYLCSQDEKYQAIGAYYIQHTCFQDESAKQQVYQLGGICKLVDLLRSPNQNVQQAAAGALRNLVFRSTPNKLETRRQNGIREAVSLLRRSGSTEIQKQLTGLLWNLSSTDELKEELVADALPVLTDRVIIPFSGWCDGNSNMSREVVDPEVFFNATGCLRNLSSADAGRQTMRNYSGLIDSLMAYVQNCVAASRCDDKSVENCMCILHNLSYRLDAEVPTRYRQLEYNTRNAYTEKSSTGCFSNRGDKMMNNNYDCPLPEEETNPKGSSWLYHSDAIRTYLNLMGKSKKDATLEACAGALQNLTASKGLMSNGMSQLIGIKEKGLPQIARLLQSGNSDVVRSGASLLSNMSRHPVLHRVMGNQVFPEVTRLLTSHTGNTSNSEDILSSACYTVRNLMTSQPQMAKQYFSNSMLNNVFNLCRNTASSPKAAEAARLLLSDMWASKELQSVLRQQGFDRNMMGNIAGANNLRNFTSRF |
| binds |  | PKP3 (protein, UniProt Q9QY23 1-797) MQEGNFLLSALQPETGVCSLALPSDLQLDRRGAEGPEADRLRAARVQEQVRARLLQLGQQSRHNGSAELDGSAESARGMPRGQYHTMQTGFSSRSQGMSGDKTSTFRPIAKPAYSPASWSSRSAVDLTCSRRLSSAHNGGSAFGAVGYGGTQPTPPMPTRPVSFHERGGAASRADYDTLSLRSLRLGPGGLDDRYSVVSEQLEPAAASTYRAYAYERQASSGSSRAGGLDWPEATEGPPSRTIRAPAMRTLQRFQSSHRSRGGTGSVSGAGLEPVARAPSVRSLSLSLADSGHLPDVRGLDSYTGHRTLQRLSSGFDDIDLPSAVKYLMASDPNLQVLGAAYIQHRCYSDAAAKKQARSLQAVPRLVKLFNHANQEVQRHATGAMRNLIYDNVDNKLALVEENGIFELLRTLREQDDELRKNVTGILWNLSSSDHLKDRLARDTLEQLTDLVLSPLSGAGGPPLIQQNASEAEIFYNATGFLRNLSSASQATRQKMRECHGLVDALVTYINHALDVGKCEDKSVENAVCVLRNLSYRLYDEMPPSALQRLEGRGRRDMAGAPPGEMVGCFTPQSRRLRELPLTADALTFAEVSKDPKGLEWLWSPQIVGLYNRLLQRCELNRHTTEAAAGALQNITAGDRRWAGVLSRLALEQERILNPLLDRVRTADHNQLRSLTGLIRNLSRNARNKDEMSTKVVSHLIEKLPGSVGEKCPPAEVLVNIIAVLNNLVVASPIAARDLLYFDGLRKLVFIKKKRDSPDSEKSSRAASSLLANLWQYSKLHRDFRAKGYRKEDFLGP |
| binds | binds | MLC phosphatase (MYPT1) (protein, UniProt Q9DBR7 1-1029) MKMADAKQKRNEQLKRWIGSETDLEPPVVKRQKTKVKFDDGAVFLAACSSGDTDEVLKLLHRGADINYANVDGLTALHQACIDDNVDMVKFLVENGANINQPDNEGWIPLHAAASCGYLDIAEFLIGQGAHVGAVNSEGDTPLDIAEEEAMEELLQNEVNRQGVDIEAARKEEERVMLRDARQWLNSGHISDVRHAKSGGTALHVAAAKGYTEVLKLLIQAGYDVNIKDYDGWTPLHAAAHWGKEEACRILVDNLCDMETVNKVGQTAFDVADEDILGYLEELQKKQTLLHSEKRDKKSPLIESTANMENNQPQKAFKNKETLIIEPEKNASRIESLEHEKADEEEEGKKDESSCSSEEDEEDDSESEAETDKTKPMASVSNAHTSSTQAAPAAVTAPTLSSNQGTPTSPVKKFPISTTKISPKEEERKDESPASWRLGLRKTGSYGALAEISASKEAQKEKDTAGVMRSASSPRLSSSLDNKEKEKDNKGTRLAYVTPTIPRRLASTSDIEEKENRESSSLRTSSSYTRRKWEDDLKKNSSINEGSTYHRSCSFGRRQDDLISCSVPSTTSTPTVTSAAGLQRSLPSSTSTAAKTPPGSSSAGTQSSTSNRLWAEDSTEKEKDSAPTAVTIPVAPTVVNAAAPSTTTLTTTTAGTVSEVRERRRSYLTPVRDEESESQRKARSRQARQSRRSTQGVTLTDLQEAEKTIGRSRSTRTREQENEEKEKEEKEKQDKEKQEEKKESEASREDEYKQKYSRTYDETYTRYRPVSTSSSSAPSSSSLSTLGSTLYASSQLNRPNSLVGITSAYSRGLAKENEREGEKKEEEKEGEDKSQPKSIRERRRPREKRRSTGVSFWTQDSDENEQERQSDTEDGSSKRETQTDSVSRYDSSSTSSSDRYDSLLGRSASYSYLEDRKPYSSRLEKDDSTDFKKLYEQILAENEKLKAQLHDTNMELTDLKLQLEKATQRQERFADRSQLEMEKRERRALERRISEMEEELKMLPDLKADNQRLKDENGALIRVISKLSK |
